Hit rate of the full screen: of about 48,000 compounds, about 550 (1.1%) were called active. Not shown: some 4% with an inconclusive outcome. No stated cut-off is given here; in the data, active means potency below about 15 µM; inconclusive means mostly about 16 µM to 33 µM; inactive means weaker than that. Some of the results follow.
target: Lysosomal acid glucosylceramidase (Homo sapiens) (UniProt P04062); assay: Glucocerebrosidase; conditions: purified enzyme, resorufin glucoside fluorescence (screen aimed at inhibitors), 20 min;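 further: the screen sought inhibitors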
Sequence of UniProt P04062 (P04062 whole entry, looked up): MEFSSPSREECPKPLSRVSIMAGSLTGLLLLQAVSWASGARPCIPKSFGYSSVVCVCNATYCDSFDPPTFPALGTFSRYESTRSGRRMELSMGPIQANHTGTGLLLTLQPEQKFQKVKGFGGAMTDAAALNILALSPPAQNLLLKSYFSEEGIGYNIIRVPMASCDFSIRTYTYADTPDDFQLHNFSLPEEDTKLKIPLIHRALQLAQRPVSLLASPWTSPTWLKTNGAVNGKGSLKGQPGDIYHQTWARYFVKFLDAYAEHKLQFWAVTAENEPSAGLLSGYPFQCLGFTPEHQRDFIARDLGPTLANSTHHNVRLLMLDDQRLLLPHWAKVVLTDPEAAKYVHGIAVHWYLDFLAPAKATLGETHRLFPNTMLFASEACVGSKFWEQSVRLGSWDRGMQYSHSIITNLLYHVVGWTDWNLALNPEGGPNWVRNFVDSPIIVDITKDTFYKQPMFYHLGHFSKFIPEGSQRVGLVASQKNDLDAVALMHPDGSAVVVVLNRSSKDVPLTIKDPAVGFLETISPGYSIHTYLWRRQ
Procedure, shortened: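 Normal human glucocerebrosidase (0.2 nM final) was assayed with resorufin β-D-glucopyranoside (30 uM final) in 50mM citric acid/KH2PO4, 10mM sodium taurocholate, 0.01% tween-20, pH 5.9. Compounds were titrated; fluorescence (Ex 548, Em 600) read after 20 min at RT.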
Potency means the concentration at half of the fitted maximal effect.

Compound | Potency
Cc1ccc2c(c1)CC1(CN2C)C(=O)NC(=O)N(CCC2=CCCCC2)C1=O (stereo unspecified) | inactive: > 76.9 µM
C[C@H]1CCC[C@H](O)CCCCCc2cc(O)cc(O)c2C(=O)O1 | inactive: > 76.9 µM
O=C1C2CCCN2C(c2ccccc2)N1c1ccccn1 (stereo unspecified) | inactive: > 76.9 µM
CC(=O)C1C2c3ccccc3OC1(C)N=c1s/c(=C/c3cn(C)nc3C)c(=O)n12 (stereo unspecified) | inactive: > 76.9 µM
COC(=O)c1cc(COc2cc(C)cc3oc(=O)c4c(c23)CCC4)c(C)o1 | inactive: > 76.9 µM
N#CC1=C(N)Oc2c(c(=O)oc3ccccc23)C1c1cccnc1 (stereo unspecified) | inactive: > 76.9 µM
Cc1nn(C)c(C)c1P(=S)(c1c(C)nn(C)c1C)N(C)C | inactive: > 76.9 µM
O[C@@H]1CCCC[C@H]1N1CCC(c2ccccc2)CC1 | inactive: > 76.9 µM
O=C(COc1ccccc1)N1CCN(C/C=C/c2ccccc2)CC1 | inactive: > 76.9 µM
CCC(=NCC1CCCO1)c1c(O)[nH]c(=O)[nH]c1=O (stereo unspecified) | inactive: > 76.9 µM
O=C(c1ccccc1)c1cn(CC(=O)N2CCOCC2)c2ccccc12 | inactive: > 76.9 µM
COC(=O)N(c1ccccc1)P1(=S)OCCO1 | inactive: > 76.9 µM
CCN(CC)CCCN=C(C)c1c(O)n(-c2ccccc2)c(=O)[nH]c1=O | inactive: > 76.9 µM
Cc1[nH]c2ccccc2c1C1=CCNCC1 | inactive: > 76.9 µM
c1cncc(CNC2=NCCCCC2)c1 | inactive: > 76.9 µM
CC12CN3CC(C)(CN(C1)C3c1cccs1)C2O (stereo unspecified) | inactive: > 76.9 µM
Cc1cc(N2C(=O)CC(N3CCC(n4c(=O)[nH]c5ccccc54)CC3)C2=O)no1 (stereo unspecified) | inactive: > 76.9 µM
CCOP(=O)(C#CC(C)(C)C)C(O)(c1ccccc1)C(F)(F)F (stereo unspecified) | inactive: > 76.9 µM
CCCN1CCC2(CC1)NC(CO)(CO)CO2 | inactive: > 76.9 µM
O=C(c1cc(Br)ccc1Cl)N1CCC2(CC1)OCCO2 | inactive: > 76.9 µM
CCOC(=O)c1c(-c2ccccc2)oc2ccc(OC(=O)N(C)C)cc12 | inactive: > 76.9 µM
CCN1CCC2(CCNC2)C1 (stereo unspecified) | inactive: > 76.9 µM
O=C1CC(N2CCC(n3c(=O)[nH]c4ccccc43)CC2)C(=O)N1c1ccc(F)cc1 (stereo unspecified) | inactive: > 76.9 µM

Compound | Potency
O=C(NC[P+](=O)O)OCc1ccccc1 | inactive: > 76.9 µM
O=C(Cc1ccccc1)N1CCN(Cc2ccccn2)CC1 | inactive: > 76.9 µM
COc1ccc2c(c1)CC1(CN2C)C(=O)NC(=O)N(c2ccc(F)cc2)C1=O (stereo unspecified) | inactive: > 76.9 µM
Cc1cccc(N2C(=O)NC(=O)C3(Cc4cc(C)ccc4N(C)C3)C2=O)c1 (stereo unspecified) | inactive: > 76.9 µM
Cc1ccc2c(c1)C1CN(C)CCC1N2C(=O)c1ccc(Br)o1 (stereo unspecified) | inactive: > 76.9 µM
Cn1c[n+](C)cc1C(O)c1ccccc1 (stereo unspecified) | inactive: > 76.9 µM
Cc1ccc2c(c1)CC1(CN2C)C(=O)NC(=O)N(c2ccc(C)c(C)c2)C1=O (stereo unspecified) | inactive: > 76.9 µM
Cc1onc(-c2ccccc2)c1C(=O)N1CCC2(CC1)OCCO2 | inactive: > 76.9 µM
CC1(C)N(O)C2CCCCC2N1O (stereo unspecified) | inactive
O/N=C1/C(=C\c2ccccc2)N2CCC1CC2 | inactive: > 76.9 µM
COC(=O)CC1(Cc2ccccc2)C(=O)NC(=O)NC1=O | inactive: > 76.9 µM
CCCc1nc2ccccc2c(=O)n1-c1cccc(OC)c1 | inactive: > 76.9 µM
CCOC(=O)CC1=C(C(=O)OCC)C2(C(=O)Nc3ccccc32)C(C#N)=C(N)O1 (stereo unspecified) | inactive: > 76.9 µM
CCCCn1c(O)c(C=NC2CC3CCC2(C)C3(C)C)c(=O)[nH]c1=O (stereo unspecified) | inactive: > 76.9 µM
O=C(COc1ccc(Cl)cc1)NC1CN2CCC1CC2 (stereo unspecified) | inactive: > 76.9 µM
COc1ccc(C(CC(=O)N2CCC3(CC2)OCCO3)NS(=O)(=O)c2ccc(F)cc2)cc1 (stereo unspecified) | inactive: > 76.9 µM
N#Cc1ccc(N2CCNCC2)c(F)c1 | inactive: > 76.9 µM
Cc1ccc2c(c1)CC1(CN2C)C(=O)NC(=O)N(c2ccccc2C)C1=O (stereo unspecified) | inactive: > 76.9 µM
O=C(c1cc2ccccn2n1)N1CCC2(CC1)OCCO2 | inactive: > 76.9 µM
Cc1nn(-c2ccccc2)c2c1CC1(C(=O)N(C)C(=O)N(C)C1=O)C1CCCCN21 (stereo unspecified) | inactive: > 76.9 µM
Cc1ccc(-n2c(O)c(C=NCc3cccnc3)c(=O)[nH]c2=O)cc1C | inactive: > 76.9 µM
CCCC(=O)c1c(O)[nH]c(=O)[nH]c1=O | inactive: > 76.9 µM
COCCCn1c(N)c(C(=O)OC(C)COC)c2nc3ccccc3nc21 (stereo unspecified) | inactive: > 76.9 µM

Reference: PubChem BioAssay AID360 (National Center for Advancing Translational Sciences (NCATS), 2006)
